# Source: PubChem BioAssay (NCATS)
# Several values for one entry are separate records, joined by “and”; a condition that tells them apart may be missing. Equal values may be shown once. Inconclusive results, whose numbers are uncertain, are shown with a selection of clear calls. Potencies beside an inconclusive call are fits to weak or partial responses and may not hold up. Activity calls are given as the source filed them. Calls follow the shape of the dose curve; as a rule, active = well fitted activation curve with a large enough effect; inconclusive = small, poorly fitted or top-dose-only effect; inactive = no such curve, though single readings can be large or run the other way.
# Molecular target: Cellular tumor antigen p53 (Homo sapiens) (UniProt P04637)
# Chain of UniProt P04637 (P04637 whole entry, looked up): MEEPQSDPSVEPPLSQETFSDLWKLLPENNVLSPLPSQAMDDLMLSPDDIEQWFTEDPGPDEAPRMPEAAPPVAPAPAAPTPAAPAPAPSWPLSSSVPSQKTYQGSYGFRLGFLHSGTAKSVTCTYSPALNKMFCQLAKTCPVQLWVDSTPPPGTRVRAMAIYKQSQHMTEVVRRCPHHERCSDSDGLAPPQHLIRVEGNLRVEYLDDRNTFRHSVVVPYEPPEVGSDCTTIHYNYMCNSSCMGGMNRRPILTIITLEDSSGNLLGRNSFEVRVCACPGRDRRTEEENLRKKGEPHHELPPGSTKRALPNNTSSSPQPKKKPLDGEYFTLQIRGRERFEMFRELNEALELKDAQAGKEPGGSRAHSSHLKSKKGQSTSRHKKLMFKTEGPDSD
# Test: Primary qHTS for small molecule compounds that upregulate eGFP-tagged delta133p53alpha (in N-terminal) cells. (AID 2060322); also: nearly all actives have a fitted effect of over 75% in size;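 as to activation: series mostly up to about 56 µM; 0% = DMSO vehicle and 100% = reference activator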
# Conditions: NCI-H358 eGFP-delta133p53alpha fluorescence, 24 h; activation: stronger effect = higher value
# Method in brief: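 NCI-H358 cells pre-induced 24 h with 10 ng/ml doxycycline to express N-terminal eGFP-delta133p53alpha, then dosed 24 h at 37C without doxycycline; fixed, Hoechst-stained, GFP intensity by laser scanning cytometry, normalized to DMSO (0%) and 57.5 uM 5-azacytidine (100%).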
# Potency is read from the fitted curve at half-maximal effect; tags tell the direction and shape of the fitted curve.
SMILES,Potency,activation
O=C(CO)N1CCC(c2[nH]nc(-c3ccc(Cl)cc3)c2-c2ccncn2)CC1,"inconclusive: 30.6 nM [activator, full curve] and inconclusive: 8.49 µM [activator, single point]",
CO[C@H]1[C@@H](O)[C@H](O[C@H]2CC[C@@]3(C)C(CCC4C3CC[C@]35COC6(COC(=O)C6)C3CCC45O)C2)O[C@@H](C)[C@@H]1OC1OC(CO)C(OC2OC(CO)C(O)C(O)C2O)C(O)C1O (some centres undefined),,inactive: 6.87%
O=c1[nH]cnc2nc[nH]c12,,inactive: -9.6%
CO[C@@H]1[C@@H](O)[C@H](O)[C@@H](n2c3c(Cl)cccc3c3c4c(c5c6cccc(Cl)c6[nH]c5c32)C(=O)NC4=O)O[C@@H]1CO,"inconclusive: 34.3 µM [activator, single point]",
CCN(CC)c1ccc2c(O)c(C=Nc3ccc(CC(=O)O)c(-c4c5c(nc6ccccc46)CCC(C(=O)NN)C5)c3)c(=O)oc2c1 (centres undefined),active: 5.36 µM,
CCCCCCCCCCCCCCCC(=O)OC(CC(=O)O)C[N+](C)(C)C (centres undefined),,inactive: -11.1%
N=c1ccn2c(n1)O[C@H]1[C@H](O)[C@@H](CO)O[C@H]12,"inconclusive: 6.75 µM [activator, partial curve, poor fit]",
C=C1C(=O)OC2CC(C)C(CCC(C)=O)=CCC12 (centres undefined),active: 16.9 µM,
C[C@H](O)C(O)(C(=O)OCc1ccccc1NC(=O)CCC(N)C(=O)O)[C@H](C)O (some centres undefined),,inactive: -24.4%
CC1OC2O[C@H]3[C@@H](OCC(O)[C@H]3O)OC(=O)C34CCC(C)(C)CC3C3=CCC5C6(C)CC(O)C(OC7OC(CO)C(O)C(O)C7O[C@@H]7OC[C@H](OC(=O)CC(C)(O)CC(=O)OC1C(OC1OCC(O)C(O)C1O)C2O)[C@@H](O)[C@H]7O)C(C)(CO)C6CCC5(C)C3(C)CC4 (some centres undefined),"inconclusive: 18.5 µM [activator, single point]",
C=C(C(=O)O)[C@@H]1CC=C(CCC(C)=O)[C@@H](C)CC1,,inactive: 8.93%
OC(CNCCc1c[nH]c2ccccc12)Cn1c2ccccc2c2ccccc21 (centres undefined),"inconclusive: 15.3 µM [activator, partial curve]",
Cc1cnn(C)c1C(=O)Nc1cc(Nc2ccc3c(C=Cc4ccccn4)n[nH]c3c2)ccc1F,,inactive: 18.7%
CCN1C[C@H](C)n2c(c(O)c3c(=O)n(Cc4ccc(F)c(Cl)c4)nc(C(=O)NC)c32)C1=O,,inactive: -11.2% and inactive: 13.4% and inactive: -6.68%
CC1=CC2/C=C(\C)CCC(O)C(=O)C(O)CC(=O)C23C(=O)NC(CC(C)C)C3C1C (centres undefined),"inconclusive: 0.0415 µM [activator, full curve, poor fit]",
Nc1cccc2c(N)cccc12,active: 28.2 µM,
NC(N)=N/N=C/c1c(Cl)cccc1Cl,"inconclusive: 6.92 µM [activator, single point]",
O=C(Nc1ccc(Cl)cc1)Nc1cccc(-c2cccc(N3CCCC3)n2)c1,"inconclusive: 6.75 µM [activator, full curve, poor fit]",
CC(C)O[C@@H]1O[C@H](CO)[C@@H](O)[C@H](O)[C@H]1O,"inconclusive: 3.79 µM [activator, partial curve, poor fit]",
CC/C(=C(\c1ccc(O)cc1)c1ccc(OCCNC)cc1)c1ccccc1,"inconclusive: 37.9 µM [activator, single point]",
CC(=O)OC[C@@]12[C@H](O)C[C@]3(C)C(=CCC4[C@@]5(C)CC[C@H](O[C@@H]6O[C@H](C(=O)O)[C@@H](O[C@@H]7O[C@H](CO)[C@@H](O)[C@H](O)[C@H]7O)[C@H](O)[C@H]6O[C@@H]6O[C@H](CO)[C@@H](O)[C@H](O)[C@H]6O)[C@](C)(CO)C5CC[C@]43C)[C@@H]1CC(C)(C)[C@@H](OC(C)=O)[C@@H]2O (some centres undefined),,inactive: -4.58%
COc1ccc2c(c1)CN(C(=O)CCN1CCC(Cc3ccccc3)CC1)CCS2,"inconclusive: 18.5 µM [activator, single point]",
COc1cc(O)c(C(=O)CCc2ccc(O)cc2)c(O[C@@H]2O[C@H](CO)[C@@H](O)[C@H](O)[C@H]2O)c1,active: 7.38 µM,
Cc1ccccc1C(=O)Nc1ccc(C(=O)N2CCCC(N(C)C)c3ccccc32)cc1 (centres undefined),"active: 3.89 µM and inconclusive: 5.36 µM [activator, full curve]",
